# Among all 220,000 compounds or so, about 16,000 (7.3%) were called active. Inconclusive means that the source gave no clear call. Such entries were picked first, then a sample of the others. Calls follow the shape of the dose curve; as a rule, active = well fitted inhibition curve with a large enough effect (not every such curve was filed as active); inconclusive = small, poorly fitted or top-dose-only effect, or another doubt; inactive = no such curve, though single readings can be large or run the other way. Potencies of inconclusive entries are left out as doubtful fits.
# Target: Aldehyde dehydrogenase 1A1 (Homo sapiens) (UniProt P00352)
# Assay: qHTS Assay for Inhibitors of Aldehyde Dehydrogenase 1 (ALDH1A1);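 as to activity, negative = inhibition: plate controls were no enzyme wells and a reference inhibitor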
# Settings: Purified ALDH1A1, NADH fluorescence, propionaldehyde substrate; series mostly up to 75.3 µM
# Potency is read from the fitted curve at half-maximal effect; tags tell the direction and shape of the fitted curve.
# UniProt P00352, sequence (P00352 whole entry, looked up): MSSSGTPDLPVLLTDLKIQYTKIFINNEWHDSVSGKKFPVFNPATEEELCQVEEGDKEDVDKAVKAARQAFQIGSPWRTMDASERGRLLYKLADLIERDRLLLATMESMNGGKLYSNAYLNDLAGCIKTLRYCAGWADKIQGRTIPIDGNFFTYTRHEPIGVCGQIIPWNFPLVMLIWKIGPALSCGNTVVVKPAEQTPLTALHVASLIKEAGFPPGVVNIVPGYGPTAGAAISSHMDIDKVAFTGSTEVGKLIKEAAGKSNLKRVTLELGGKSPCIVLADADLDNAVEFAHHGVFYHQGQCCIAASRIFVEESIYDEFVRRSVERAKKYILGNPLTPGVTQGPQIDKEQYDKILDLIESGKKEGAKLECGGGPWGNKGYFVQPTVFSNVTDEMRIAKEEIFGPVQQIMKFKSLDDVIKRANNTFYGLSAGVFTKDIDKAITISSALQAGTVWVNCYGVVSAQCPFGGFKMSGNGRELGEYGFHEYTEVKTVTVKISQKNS
SMILES,Potency,"activity, negative = inhibition"
COc1ccc(OC)c(NC(=S)NCCN2CCOCC2)c1,inactive,
O=C(CSc1ncnc2c1oc1ccccc12)N1CCCc2ccccc21,"inconclusive [inhibitor, single point]",
COc1ccc(-c2c(C#N)sc(C(N)=O)c2-c2ccc(OC)cc2)cc1,active: 2 µM,
O=c1[nH]c(=O)n(C2CC(O)C(CO)O2)cc1F (centres undefined),inactive,
C=C(C(C)=O)C(O)c1ccc2ccccc2c1 (centres undefined),inactive,
Cc1ccc(NC(=S)NC(NC(=O)c2ccccc2C)C(Cl)(Cl)Cl)c(C)c1 (centres undefined),"inconclusive [inhibitor, partial curve]",
CCOc1ccc(C2=Cc3cc(OC)c(OC)cc3C(=C(Cl)Cl)O2)cc1,"inconclusive [inhibitor, single point]",
COc1ccc(NC(=O)CSc2nc(N)c(C(=O)Nc3ccc(N(C)C)cc3)s2)cc1,"inconclusive [inhibitor, single point]",
CCOC(=O)CNC(=S)N(Cc1ccc(C)cc1)Cc1ccc(C)o1,inactive,
O=C(COc1ccc([N+](=O)[O-])cc1)N/N=C/c1ccccn1,inactive,
FC(F)(F)c1ccc(/C=N/N2CCN(Cc3ccccc3)CC2)cc1,inactive,
CCCn1c(O)c(N=NC(=O)c2cccnc2)c2cc(Br)ccc21,active: 1.12 µM,
COc1ccc(-c2cc(C(F)(F)F)c3c(n2)sc2c(O)cc(=O)[nH]c23)c(OC)c1,"inconclusive [inhibitor, partial curve]",
CCc1ccc(NC(=O)CSC2=C(C#N)C(c3ccco3)C3=C(CCCC3=O)N2)cc1 (centres undefined),"inconclusive [inhibitor, single point]",
O=C(/C=C/c1ccccc1)c1ccccc1O,inactive,
O=c1c(-c2ccccc2)cnc2n1CCS2,inactive,
C#CCCCO/N=C1/C[C@@H](O)[C@@H](O)[C@@H]2[C@@H]3C(=O)N(Cc4ccc5c(c4)OCO5)C(=O)[C@H]3CC[C@@H]12,,inactive: -2.91% [at 13.5 µM]
O=c1cc(N2CCCCC2)[nH]c(=O)n1C1CCCCC1,"inconclusive [inhibitor, single point]",
CN(C)CCCCl,inactive,
COc1ccc(/C=N/NC(=O)CCN2CCN(c3ccccc3)CC2)c(OC)c1OC,inactive,
Cc1ccc(C(=O)NC(=S)Nc2ccc(NC(=O)c3cccs3)cc2)cc1[N+](=O)[O-],active: 12.6 µM,
Cn1c(C(=O)NCCN2CCN(c3ccccc3F)CC2)cc2c(=O)n(C)c3ccccc3c21,"inconclusive [inhibitor, partial curve]",
O=c1cc(-c2ccc(O)c(O)c2)oc2cc(OC3OC(CO)C(O)C(O)C3O)cc(O)c12 (centres undefined),"inconclusive [inhibitor, single point]",
CCn1c(-c2cccs2)nc2ccccc21,"inconclusive [inhibitor, partial curve]",
O=C(O)CCc1ccc(-c2cccs2)n1CCC(=O)O,"inconclusive [inhibitor, partial curve]",

SMILES,Potency,"activity, negative = inhibition"
COc1ccc(CC(=O)N2CC3(C)CC2CC(C)(C)C3)cc1OC (centres undefined),"inconclusive [inhibitor, single point]",
CC(C)(C)C(=O)CNS(=O)(=O)c1ccc(S(=O)(=O)NC2CCCC2)cc1,"inconclusive [inhibitor, partial curve]",
COC1=C(Nc2ccc(OC)cc2)C(=O)c2ccccc2C1=O,"inconclusive [inhibitor, full curve]",
Nc1ncnc(NCc2ccccc2)c1[N+](=O)[O-],inactive,
Cc1cccc(C)c1NC(=O)CC1SC2=NCCN2C1=O (centres undefined),"inconclusive [inhibitor, single point]",
CCn1ncc(C2=NOC(C(=O)NCC(C)C)C2)c1C (centres undefined),inactive,
CCSc1nc(C)c(CCOc2cccc(C)c2)c(=O)[nH]1,inactive,
O=C(CSc1nc(-c2ccccc2)cc(=O)[nH]1)N1CCc2ccccc21,inactive,
COc1cccc(NC(=O)C(OC(=O)c2ccccc2NS(=O)(=O)c2cccs2)c2ccccc2)c1 (centres undefined),"inconclusive [inhibitor, single point]",
CC(C)c1nnc(NC(=O)CCCCCN2C(=O)C3C4C=CC(C4)C3C2=O)s1 (centres undefined),"inconclusive [inhibitor, partial curve, poor fit]",
Cc1nc(CSc2nnc(C)s2)cs1,inactive,
Cc1cccc(-n2cnc(C(=O)NNC(=S)Nc3ccccc3)c2)n1,"inconclusive [inhibitor, single point]",
O=C(Nc1ccccc1)Nc1nccs1,inactive,
O=C(CNCc1ccco1)Nc1cc(S(=O)(=O)N2CCOCC2)ccc1N1CCCC1,"inconclusive [inhibitor, single point]",
N#Cc1cccc(NC(=S)Nc2ccccc2)c1,"inconclusive [inhibitor, single point]",
CN(C)c1ccc(P(=O)(OCc2ccccc2)C(O)c2cccnc2)cc1 (centres undefined),inactive,
O=C1C(=O)N(CC2CCCO2)C(c2ccccc2[N+](=O)[O-])/C1=C(/O)c1ccccc1 (centres undefined),"inconclusive [inhibitor, single point]",
Cc1c(Cl)cccc1NC(=O)NC1CCCCC1,inactive,
CCN1C(=O)/C(=C2\SC(=S)N(CCCOC)C2=O)c2ccccc21,inactive,
COC(=O)c1cc2c(ccn2-c2ccc(F)cc2)n1CC(=O)N1CCN(C(=O)c2ccco2)CC1,"inconclusive [inhibitor, single point]",
CC(CNC(=O)c1cncc(O)c1)NC(=O)c1cncc(O)c1 (centres undefined),"inconclusive [inhibitor, partial curve]",
O=[N+]([O-])c1cccc(/C=C2\CCC(/C=N/Nc3ccc4ccccc4n3)=C2N2CCOCC2)c1,"inconclusive [inhibitor, single point]",
Cc1ccc(NC(=O)C(=O)C2C(=O)Nc3ccccc32)cc1 (centres undefined),inactive,
CCSc1cc(N2CCCC2)nc(-c2ccccc2)n1,"inconclusive [inhibitor, single point]",
